# Measurements published in article PMC4336329 (PLoS ONE, 2015).
# The campaign covered roughly 310,000 compounds. About 14,000 (4.5%) showed an effect of 50% or more. Effects have a minus sign here. This is one part of the list.
# Molecular target: human ether-à-go-go-related gene (hERG) potassium channel (human, UniProt Q12809)
# Test: primary screen, population patch clamp on CHO cells stably expressing hERG
# 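Further: peak tail current of the secondary pulse compared with the same well before compound.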
# human ether-à-go-go-related gene (hERG) potassium channel, sequence (Q12809 whole entry, looked up): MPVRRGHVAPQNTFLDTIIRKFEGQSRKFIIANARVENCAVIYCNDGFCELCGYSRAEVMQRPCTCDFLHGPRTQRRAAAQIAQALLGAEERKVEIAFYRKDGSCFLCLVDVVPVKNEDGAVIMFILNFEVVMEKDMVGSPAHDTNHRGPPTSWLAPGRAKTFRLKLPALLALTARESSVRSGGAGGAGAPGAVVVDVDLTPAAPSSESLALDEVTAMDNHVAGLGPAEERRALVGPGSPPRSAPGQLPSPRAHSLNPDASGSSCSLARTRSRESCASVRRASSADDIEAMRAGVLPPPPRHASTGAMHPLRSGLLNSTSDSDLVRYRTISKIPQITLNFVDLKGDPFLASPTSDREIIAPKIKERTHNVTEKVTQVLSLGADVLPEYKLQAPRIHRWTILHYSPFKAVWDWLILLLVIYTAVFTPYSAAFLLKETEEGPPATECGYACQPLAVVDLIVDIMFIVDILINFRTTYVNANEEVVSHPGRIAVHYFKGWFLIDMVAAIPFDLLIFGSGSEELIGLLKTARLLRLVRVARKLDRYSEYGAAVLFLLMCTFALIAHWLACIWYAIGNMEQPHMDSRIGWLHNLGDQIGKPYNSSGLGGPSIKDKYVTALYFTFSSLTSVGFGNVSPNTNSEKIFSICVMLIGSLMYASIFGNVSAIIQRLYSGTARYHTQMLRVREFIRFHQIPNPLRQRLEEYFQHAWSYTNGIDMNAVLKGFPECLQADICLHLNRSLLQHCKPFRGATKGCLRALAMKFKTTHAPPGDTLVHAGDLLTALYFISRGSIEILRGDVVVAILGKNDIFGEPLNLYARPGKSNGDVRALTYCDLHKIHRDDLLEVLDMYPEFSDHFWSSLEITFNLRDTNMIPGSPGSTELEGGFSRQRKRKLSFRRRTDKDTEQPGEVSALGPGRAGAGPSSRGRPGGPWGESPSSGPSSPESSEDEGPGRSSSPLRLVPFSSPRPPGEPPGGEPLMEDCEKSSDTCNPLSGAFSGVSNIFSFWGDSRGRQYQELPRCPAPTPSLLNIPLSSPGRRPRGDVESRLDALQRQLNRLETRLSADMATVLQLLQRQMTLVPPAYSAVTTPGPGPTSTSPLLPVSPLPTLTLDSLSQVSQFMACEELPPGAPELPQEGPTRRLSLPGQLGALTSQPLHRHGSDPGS
row,SMILES,"hERG current change (%, negative = inhibition) at 10uM [%]"
1,O=C(COC(=O)Cc1cccs1)NCC(=O)Nc1ccc(F)cc1,-20.3
2,O=C1/C(=C\c2ccsc2)N2CCC1CC2,5.75
3,CC(C)NC(=O)COc1ncnc2sccc12,6.97
4,Cc1cccc2cc(CN(Cc3ccco3)S(=O)(=O)c3ccc4c(c3)OCCO4)c(=O)[nH]c12,12.3
5,CCOCCn1c(C(C)O)nc2ccccc21 (stereo not shown),11.7
6,CCn1c(SCC(=O)Nc2cccc(NC(C)=O)c2)nnc1C(C)C,5.73
7,O=C(CSc1nnc(-c2ccco2)o1)NCC(=O)c1ccccc1,-4.72
8,COCCc1nc2ccc(C(=O)N3CCCC(CCCO)C3)cc2o1 (stereo not shown),21.7
9,O=C(NCCCN1CCCC1=O)C(=O)NCC1OCCN1S(=O)(=O)c1ccc(Br)cc1 (stereo not shown),6.2
10,CCN(CC(=O)NCc1cccs1)C(=O)c1ccc(OC)c(OC)c1,7.7
11,CN(C)CCNCc1ccccc1OC1CCCC1.Cl,-12.8
12,Cc1nc2c(nnn2Cc2c(Cl)cccc2Cl)c(=O)[nH]1,17.8
13,Cc1ccc(C(=O)CCC(=O)OC(C)C(=O)NC2CCCCC2C)cc1 (stereo not shown),8.09
14,O=C(NCCCN1CCCC1)c1ccc2c(Cl)c3c(nc2c1)CCCC3,-50.1
15,Cc1ccc(S(=O)(=O)N2CCCN(c3nccc(C(F)(F)F)n3)CC2)cc1,4.77
16,CN(C)S(=O)(=O)c1ccc(/C(O)=C2/C(=O)C(=O)N(Cc3cccnc3)C2c2ccncc2)cc1 (stereo not shown),13
17,CCOC(=O)Cn1cnc2c(cnn2-c2ccccc2)c1=O,19.3
18,COc1ccc(/C=C\C(=O)c2c(O)ccc3c(C)cc(=O)oc23)cc1OC,8.03
19,COc1ccccc1OC(=O)c1ccc(SC)cc1OC,-24
20,Cc1ccc(NC(=O)CSc2nccn(-c3ccc4c(c3)OCCO4)c2=O)cc1,-5.2

row,SMILES,"hERG current change (%, negative = inhibition) at 10uM [%]"
1,CC(=O)Oc1ccc(-c2cccc(C(=O)O)c2)cc1,10.4
2,Nc1nc(NCC2CCCO2)nc(Nc2ccccc2)c1[N+](=O)[O-] (stereo not shown),-12.7
3,CCOc1ccccc1NC(=O)CC1SC(=N)N(c2ccccc2)C1=O (stereo not shown),6.4
4,COC(=O)c1ccc(NC(=O)COc2cccc3c2OC(C)(C)C3)cc1,-0.606
5,CC(C)(C)NC(=O)COc1ccc(CNCc2cccnc2)cc1.Cl,-3.67
6,CS(=O)(=O)N1CCN(C(=O)c2ccc(Cl)s2)CC1,7.69
7,CCS(=O)(=O)Nc1ccc2c(c1)OCO2,10.7
8,CN(CC1CCOCC1)C(=O)CC1C(=O)NCCN1CC1CCCCC1 (stereo not shown),18.6
9,CCC(=O)n1nc(-c2ccccc2)nc1SCC(=O)Nc1ccc(C)cc1,-2.1
10,C=CCOc1ccc(C(=O)CC)cc1OC,-0.696
11,CN(C)Cc1cc2ccccc2c2c1COC2,-0.493
12,Cc1ccccc1NCc1nc2ccccc2n1C,16.3
13,CN(Cc1nc(-c2ccccc2)no1)C(=O)c1ccc2c(c1)OCO2,-20.5
14,S=C(NCC1CCCO1)N1CCN(Cc2ccccc2Cl)CC1 (stereo not shown),1.7
15,O=S1(=O)CCOC[C@H](c2ccccc2)N1Cc1ccccc1,11.4
16,Cn1c(-c2ccc3nc(N)sc3c2)nc2cc(N)ccc21,-1.01
17,CCOC(=O)Cc1ccc(NS(=O)(=O)c2ccc(SC)cc2)cc1,-10.5
18,CCOC(=O)c1ccc2nc(Nc3nc4ccc(F)cc4s3)sc2c1,-8.68
19,CC(C)(C)NC(=O)c1ccccc1-c1nc2ccccc2s1,-1.65
20,C=CCSC1=C(C#N)C(c2ccccc2C)CC(=O)N1 (stereo not shown),3.73

row,SMILES,"hERG current change (%, negative = inhibition) at 10uM [%]"
1,Cc1c(N=C2N=C(NC(=O)c3ccc(F)cc3)c3ccccc32)c(=O)n(-c2ccccc2)n1C,4.56
2,Cc1sc2nc(SCC(=O)N(CCO)CCO)nc(N)c2c1C,11.6
3,CCOC(=O)COc1ccccc1C1Nc2ccccc2C(=O)N1c1cccc(Cl)c1 (stereo not shown),-21
4,Nc1n[nH]c2c1C1(CCCCC1)Cc1ccccc1-2,11.9
5,O=C(Cn1cnc2cc([N+](=O)[O-])ccc2c1=O)NC(=O)NCc1ccccc1,2.25
6,C=CCN(CC=C)S(=O)(=O)c1ccc2nsnc2c1,-1.88
7,Cc1cc(OCCN2CC(C)OC(C)C2)ccc1[N+](=O)[O-].O=C(O)C(=O)O (stereo not shown),-13.8
8,CCCN(CCC)S(=O)(=O)c1ccc(C(=O)NCc2n[nH]c(=S)n2-c2ccc(Cl)c(Cl)c2)cc1,8.32
9,O=C(COc1ccccc1)Nc1nc(-c2cccnc2)cs1,0.9
10,COc1cc2c(cc1NC(=O)CSc1nccn1C)oc1ccccc12,0.938
11,Cc1ccc(S(=O)(=O)N(C)C)cc1NC(=O)COC(=O)CNC(=O)C12CC3CC(CC(C3)C1)C2,3.39
12,Cc1cc(=O)n(C(NC(=O)c2ccccc2)C(=O)c2ccccc2)cn1 (stereo not shown),3.71
13,COc1ccc2c(CC(=O)N3CCc4cc(OC)c(OC)cc4C3)coc2c1,9.06
14,CCN(CC)C(=O)C1CCN(Cc2cccc(OCc3ccccc3)c2)CC1.O=C(O)C(=O)O,-39.6
15,COc1ccc(S(=O)(=O)N(C)c2ccc(C(=O)N3CCN(C)CC3)cc2)cc1,3.25
16,CC1CCN(C(=O)CN2C(=O)NC(c3ccccc3)(c3ccccc3)C2=O)CC1,-12.7
17,O=C(C(c1ccccc1)c1ccccc1)N1CCC(c2nc(-c3ccccc3Cl)no2)CC1,11.2
18,CCCCCCc1ccc(O)cc1O,20.7
